This is one part of the list. At the low end of the ranking the order means little.

172 sequences from publication PMC10668032 can be followed below.

For the test, the target named is SIX1-Q177R homeodomain (UniProt Q15475). In words: universal protein binding microarray. The settings on record: Universal all-10-mer PBM (8x60K, AMADID 030236), 300 nM GST-tagged protein, Alexa Fluor 488 anti-GST; buffer, salt, pH and temperature not stated; high values mean tight binding; most listed sequences are background and not binding sites; double strand, one strand shown.
CGGGCAGA: the binding signal was 0.0218 E-score.

For CTACTGCC, the binding signal was -0.173 E-score.

As for GACTTTTA, the binding signal is -0.0872 E-score.

For CTCGATCC, the binding signal was found to be 0.201 E-score.

Turning to TCGAATCA, the binding signal was -0.137 E-score.

Turning to CATAGAGA, the binding signal was -0.259 E-score.

As to CTAAGCAG, the binding signal was -0.0605 E-score.

For GCAAGGGA, the binding signal is -0.26 E-score.

Regarding AATCTAGC, the binding signal stood at 0.00747 E-score.

Regarding ACATCGTG, the binding signal was 0.151 E-score.

With TCATTCCA, the binding signal was -0.188 E-score.

As for CTACTCGA, the binding signal was -0.0212 E-score.

In the case of CCCGTGCA, the binding signal is 0.13 E-score.

For GCCTATGA, the binding signal is -0.0468 E-score.

Turning to GACACAAC, the binding signal is 0.207 E-score.

Consider AGCTCCCA, for which the binding signal was -0.0501 E-score.

For CCCTACCA, the binding signal turned out to be 0.167 E-score.

For the sequence GCGCAAGA, the binding signal was -0.132 E-score.

As to GGAGCCCC, the binding signal worked out at 0.0175 E-score.

Turning to CACGGAAG, the binding signal is 0.133 E-score.

Consider AATATGTG, for which the binding signal was -0.0184 E-score.

Consider ACATTCTG, for which the binding signal was -0.191 E-score.

GTCGGATA: the binding signal was 0.292 E-score.

Regarding CAGGCGGA, the binding signal came out at 0.0253 E-score.

Turning to CACACCAC, the binding signal is 0.442 E-score.

With AAATCTTC, the binding signal is -0.234 E-score.

Take AGGCTACA: the binding signal stood at 0.0808 E-score.

For the sequence ATCAAATG, the binding signal was -0.139 E-score.

CCTTTATA: the binding signal was -0.046 E-score.

Consider CTCTACGC, for which the binding signal was -0.0861 E-score.

On to GCGTCCTA, for which the binding signal was 0.168 E-score.

Regarding CGATCTAC, the binding signal amounted to 0.00439 E-score.

As for ATCTGTTG, the binding signal is -0.0729 E-score.

For the sequence AGGAAAAG, the binding signal was -0.119 E-score.

As for GAGAATAA, the binding signal was -0.144 E-score.

For the sequence CACTCTTA, the binding signal stood at 0.164 E-score.

With CGTTGACC, the binding signal amounted to 0.0435 E-score.

In the case of ACAATTGC, the binding signal was -0.0808 E-score.

As to AGGGGTTC, the binding signal is 0.193 E-score.

GGTGATGA: the binding signal was -0.00208 E-score.

GCAGCACA: the binding signal was 0.00365 E-score.

As to GTCGTTAA, the binding signal is -0.0424 E-score.

On to TAAATCAA, for which the binding signal is -0.192 E-score.

Turning to GAGGCCTA, the binding signal was -0.225 E-score.

Turning to GAAGGTGC, the binding signal is 0.0832 E-score.

For the sequence ATTTATAG, the binding signal is -0.165 E-score.

For AATGATAC, the binding signal was found to be 0.212 E-score.

For AGTATTGC, the binding signal worked out at 0.202 E-score.

As to AAAGATAG, the binding signal was -0.212 E-score.

In the case of CCTGAGCC, the binding signal is -0.126 E-score.

As to CCTACCGC, the binding signal worked out at 0.0528 E-score.

In the case of CCCTTCCA, the binding signal is -0.0443 E-score.

On to CGACGGAA, for which the binding signal was -0.0143 E-score.

In the case of AAGCATTA, the binding signal is -0.159 E-score.

With CATTTAAA, the binding signal was -0.0828 E-score.

Regarding AGGAAAAT, the binding signal was -0.167 E-score.

For CCCTCCCA, the binding signal was determined as 0.176 E-score.

Turning to GATGCCAA, the binding signal is -0.101 E-score.

Consider GTGGTCGA, for which the binding signal is -0.0682 E-score.

Regarding ACGTAGCG, the binding signal is -0.00278 E-score.

For the sequence CAACAGCC, the binding signal was -0.183 E-score.

Consider GGCTGCTA, for which the binding signal was -0.00524 E-score.

On to ACGAATTG, for which the binding signal is -0.0274 E-score.

Turning to GCACGAAC, the binding signal was 0.138 E-score.

Turning to AAGCCACC, the binding signal was -0.276 E-score.

Turning to AATTGAAT, the binding signal is -0.28 E-score.

With GACCGGAC, the binding signal is -0.0399 E-score.

For the sequence GGCCAAGA, the binding signal was -0.0778 E-score.

Take AACCTATC: the binding signal was -0.0779 E-score.

In the case of ATATGAGC, the binding signal was -0.145 E-score.

Turning to CTCCGATA, the binding signal was 0.0792 E-score.

Turning to TACTAGTA, the binding signal was found to be 0.0531 E-score.

As for CCTCTAGA, the binding signal is -0.183 E-score.

Regarding GGAATGGA, the binding signal was -0.172 E-score.

On to ACACGCAT, for which the binding signal is 0.383 E-score.

Turning to AAGTATAC, the binding signal was -0.0758 E-score.

As to AGATTAAC, the binding signal is -0.131 E-score.

Take CGTGGAGC: the binding signal is -0.00216 E-score.

As to CCACGTAA, the binding signal is -0.148 E-score.

For ACCTAACT, the binding signal is -0.122 E-score.

Consider CACCGGGA, for which the binding signal came out at 0.176 E-score.

Regarding ACAGCACC, the binding signal is 0.184 E-score.

On to CATCTCAA, for which the binding signal is -0.278 E-score.

In the case of TGCTGGAA, the binding signal was -0.0826 E-score.

Consider TGCACGAA, for which the binding signal was -0.116 E-score.

On to AGTAGGCG, for which the binding signal is -0.0635 E-score.

As to GTCAGGAA, the binding signal was -0.0703 E-score.

Turning to CAAACTTA, the binding signal is -0.108 E-score.

On to ACCACGAC, for which the binding signal turned out to be 0.011 E-score.

Turning to GCAAGCTA, the binding signal is -0.169 E-score.

GCTATGTA: the binding signal was -0.248 E-score.

Consider CTTCCTAC, for which the binding signal was -0.143 E-score.

As for CGCGGAGA, the binding signal was -0.134 E-score.

Take GATCCCGA: the binding signal stood at 0.203 E-score.

For CGTACTTA, the binding signal is 0.0885 E-score.

As to GCTGTAGA, the binding signal was -0.0426 E-score.

In the case of CGCGCGAA, the binding signal was -0.113 E-score.

As for AGTCTAAC, the binding signal is -0.191 E-score.

For the sequence CTTTAAGC, the binding signal was -0.11 E-score.

On to AGGATCAC, for which the binding signal is 0.128 E-score.

With AGACGGAA, the binding signal was -0.304 E-score.

GTCATCTA: the binding signal is 0.0299 E-score.

As to ATACCGTA, the binding signal turned out to be 0.117 E-score.

In the case of GCAATATA, the binding signal is -0.234 E-score.

For the sequence CAGAGCTC, the binding signal is -0.243 E-score.

For the sequence GCGTTAGA, the binding signal was -0.0374 E-score.

On to CTGGCGGA, for which the binding signal is -0.134 E-score.

ACACCTAC: the binding signal was determined as 0.456 E-score.

For the sequence GGGATGCA, the binding signal is -0.203 E-score.

As to ACCACACG, the binding signal stood at 0.297 E-score.

As to CGACTACC, the binding signal was -0.0227 E-score.

Turning to GCCCAAGC, the binding signal was -0.119 E-score.

In the case of TCCAAGGA, the binding signal is -0.186 E-score.

Consider CATGACGA, for which the binding signal was -0.091 E-score.

Consider TGAGGCAA, for which the binding signal was -0.0678 E-score.

As for CACGGGGC, the binding signal came to 0.212 E-score.

On to GTACCGGA, for which the binding signal is -0.0912 E-score.

For ACCTTGAT, the binding signal came to 0.011 E-score.

For the sequence TCGTAGAA, the binding signal worked out at 0.0254 E-score.

As to AGCAAATC, the binding signal is -0.161 E-score.

Regarding AGTCAGAC, the binding signal was -0.123 E-score.

Turning to AGACACCG, the binding signal is 0.468 E-score.

Take ACCCCGAA: the binding signal turned out to be 0.228 E-score.

As for ATCTATGC, the binding signal amounted to 0.00494 E-score.

In the case of AGTCTCTC, the binding signal was -0.0785 E-score.

As for GGTATAGA, the binding signal is 0.0769 E-score.

Turning to ATCACACC, the binding signal was found to be 0.442 E-score.

For CCTCCCTC, the binding signal came out at 0.0282 E-score.

In the case of CGTCTTCC, the binding signal worked out at 0.0116 E-score.

Turning to ATATTTGA, the binding signal is -0.0434 E-score.

Consider CGGGCTAG, for which the binding signal is 0.0539 E-score.

For the sequence GCTAAGCA, the binding signal was -0.127 E-score.

For the sequence AACAGGCT, the binding signal was -0.0833 E-score.

Regarding ATTGTGCG, the binding signal was -0.242 E-score.

In the case of AGTGATCG, the binding signal stood at 0.00954 E-score.

For AGAGTATG, the binding signal was -0.193 E-score.

For the sequence TAGCTAGA, the binding signal is -0.218 E-score.

With ACGGCTAC, the binding signal is 0.131 E-score.

CTCTATGA: the binding signal was -0.182 E-score.

Regarding TCATTCGA, the binding signal is -0.0272 E-score.

For the sequence CCGCATTC, the binding signal is -0.292 E-score.

On to ATAAGCAT, for which the binding signal is -0.142 E-score.

For AGCGATGA, the binding signal was -0.0994 E-score.

Consider AGTGTAGG, for which the binding signal turned out to be 0.411 E-score.

In the case of AACGCGGT, the binding signal amounted to 0.0755 E-score.

With AGGATCGA, the binding signal is 0.144 E-score.

In the case of GAAGTGTA, the binding signal was 0.368 E-score.

In the case of ACCAAACT, the binding signal is -0.0694 E-score.

Consider CGGCAAAA, for which the binding signal is -0.0666 E-score.

Take TGAGTGCA: the binding signal came out at 0.00261 E-score.

With AAGGGGCA, the binding signal is -0.0365 E-score.

Consider AAAACAGA, for which the binding signal is -0.211 E-score.

Turning to AGGGTGCG, the binding signal amounted to 0.226 E-score.

Turning to TATTAGAA, the binding signal is -0.117 E-score.

With GGCTAAAC, the binding signal is -0.0876 E-score.

For ACCCGCAT, the binding signal stood at 0.135 E-score.

On to ACCTGCCA, for which the binding signal was -0.00664 E-score.

As for GGAATCCC, the binding signal amounted to 0.149 E-score.

Turning to AGACGAGG, the binding signal is -0.0152 E-score.

As for GTCCGGTA, the binding signal was -0.0712 E-score.

As for TCAAGAAA, the binding signal was -0.17 E-score.

For ACAGAAGC, the binding signal was -0.119 E-score.

As to ACCGTGGA, the binding signal was determined as 0.0592 E-score.

Take CAACCGGA: the binding signal is -0.0947 E-score.

For CTCTAATC, the binding signal amounted to 0.05 E-score.

Consider CTCCCCAA, for which the binding signal turned out to be 0.28 E-score.

In the case of ACTCAGCT, the binding signal is -0.134 E-score.

As for ATTGCAGG, the binding signal stood at 0.0323 E-score.

For the sequence CCCGGCTA, the binding signal turned out to be 0.107 E-score.

For CCTGCGAA, the binding signal was -0.201 E-score.

Consider ATAACGAG, for which the binding signal turned out to be 0.0638 E-score.

As to CGTCCAGA, the binding signal was -0.0791 E-score.
